Results from paper PMC11039692, “SRY-Box transcription factor 9 triggers YAP nuclear entry via direct interaction in tumors” (Signal Transduction and Targeted Therapy, 2024).
Results are given in words; binding and its absence hold for the method and conditions named. For some of these results: In cells and extracts the contact can be indirect. Some results given as binding are weak or reduced against the parent protein; the word gives no strength. One block for each substance: values may come before it.

By UniProt entry, the sequences of proteins in these tests, tags left out. Where a name states a change or a piece, a line headed by the entry shows the natural chain unless it says otherwise. Chains listed by the source or under a name are the forms on record and can include a tag or linker. Residues count along the entry.
UniProt Q15561: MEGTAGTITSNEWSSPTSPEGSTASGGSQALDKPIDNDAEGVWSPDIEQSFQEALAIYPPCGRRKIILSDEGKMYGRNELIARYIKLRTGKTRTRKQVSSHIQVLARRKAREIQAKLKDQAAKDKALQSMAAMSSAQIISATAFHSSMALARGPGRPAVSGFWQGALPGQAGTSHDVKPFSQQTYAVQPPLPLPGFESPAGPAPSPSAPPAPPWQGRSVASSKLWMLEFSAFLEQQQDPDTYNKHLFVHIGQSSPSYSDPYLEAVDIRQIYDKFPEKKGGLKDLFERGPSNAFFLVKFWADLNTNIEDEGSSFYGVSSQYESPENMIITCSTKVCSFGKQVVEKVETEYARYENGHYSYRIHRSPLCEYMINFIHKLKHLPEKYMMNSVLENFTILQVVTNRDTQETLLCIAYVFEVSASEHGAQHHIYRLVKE
UniProt P48436: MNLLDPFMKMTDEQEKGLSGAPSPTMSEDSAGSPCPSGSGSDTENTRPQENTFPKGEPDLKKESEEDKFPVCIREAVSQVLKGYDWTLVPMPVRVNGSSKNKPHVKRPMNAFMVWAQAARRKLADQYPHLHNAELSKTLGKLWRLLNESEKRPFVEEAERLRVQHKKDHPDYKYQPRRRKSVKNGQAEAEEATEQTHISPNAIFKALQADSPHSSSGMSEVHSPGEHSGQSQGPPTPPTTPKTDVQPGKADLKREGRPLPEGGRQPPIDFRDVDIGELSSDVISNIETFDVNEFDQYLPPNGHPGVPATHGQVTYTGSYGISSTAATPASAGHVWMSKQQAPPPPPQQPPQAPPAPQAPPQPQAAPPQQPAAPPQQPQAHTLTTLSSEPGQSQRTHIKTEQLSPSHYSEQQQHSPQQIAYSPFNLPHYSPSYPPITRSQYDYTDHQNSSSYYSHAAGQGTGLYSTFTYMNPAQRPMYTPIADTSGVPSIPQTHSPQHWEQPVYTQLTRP
SOX9-HMG domain (aa 98–181): residues 98-181 of P48436
Pep-S-A1 (cell-penetrating peptide Pep, di-glycine linker, S-A1) (P48436, form named): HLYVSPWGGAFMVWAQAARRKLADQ
FLAG-SOX9 Δ176–210 (P48436, form named): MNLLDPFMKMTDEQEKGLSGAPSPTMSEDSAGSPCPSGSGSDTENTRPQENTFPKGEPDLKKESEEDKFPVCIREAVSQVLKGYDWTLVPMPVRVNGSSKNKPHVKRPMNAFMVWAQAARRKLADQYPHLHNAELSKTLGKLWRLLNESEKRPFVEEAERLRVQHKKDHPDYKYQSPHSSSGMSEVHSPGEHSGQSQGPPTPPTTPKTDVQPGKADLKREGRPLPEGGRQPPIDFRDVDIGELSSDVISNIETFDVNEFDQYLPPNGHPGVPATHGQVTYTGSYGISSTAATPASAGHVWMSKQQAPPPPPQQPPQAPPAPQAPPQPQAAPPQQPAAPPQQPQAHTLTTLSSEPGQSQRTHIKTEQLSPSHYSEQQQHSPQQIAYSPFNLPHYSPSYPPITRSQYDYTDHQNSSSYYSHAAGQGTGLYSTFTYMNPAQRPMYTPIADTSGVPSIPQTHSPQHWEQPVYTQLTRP
UniProt Q99873: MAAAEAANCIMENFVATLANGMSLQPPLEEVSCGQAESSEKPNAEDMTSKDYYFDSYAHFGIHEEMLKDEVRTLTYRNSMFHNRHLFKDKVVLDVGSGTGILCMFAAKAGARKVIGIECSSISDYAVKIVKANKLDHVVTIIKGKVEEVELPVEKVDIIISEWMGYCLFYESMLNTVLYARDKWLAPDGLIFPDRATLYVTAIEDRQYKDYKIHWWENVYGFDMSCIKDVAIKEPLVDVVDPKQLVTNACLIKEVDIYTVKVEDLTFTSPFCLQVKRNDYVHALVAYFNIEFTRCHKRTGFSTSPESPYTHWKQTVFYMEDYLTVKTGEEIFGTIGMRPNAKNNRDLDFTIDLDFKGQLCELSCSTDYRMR

Assays:
[1] = target: Yes-associated protein (YAP), endogenous (human (endogenous in Huh-7)) (UniProt P46937); assay: proximity ligation; Duolink PLA with antibodies against SOX9 and YAP in Huh-7 cells with DOX-inducible mCherry-SOX9; DOX 1 μg/mL, cells fixed after DOX induction
[2] = target: Yes-associated protein (YAP), endogenous (human (endogenous in Huh-7)) (UniProt P46937); assay: proximity ligation; PLA of exogenous SOX9 or its Δ94–126 deletion with YAP in cells (supplementary Fig. 4c)
V5-YAP (human) [3] = target: V5-YAP (human) (UniProt P46937); assay: co-IP; reciprocal: Huh-7 cells co-transfected with V5-YAP and FLAG-tagged SOX9 or mutants; immunoprecipitation with anti-FLAG beads or anti-V5 beads, immunoblot
[4] = target: Yes-associated protein (YAP), endogenous (human (endogenous in Huh-7)) (UniProt P46937); assay: co-IP; immunoprecipitation with YAP antibody, immunoblot for PRMT1
[5] = target: Yes-associated protein (YAP), endogenous (human (endogenous in Huh-7)) (UniProt P46937); assay: proximity ligation; PLA of YAP and SOX9 in HCC cells treated with Pep-peptides (supplementary Fig. 8a, b); synthetic peptide added to cells as competitor; only the binder purified
V5-YAP (human) [6] = target: V5-YAP (human) (UniProt P46937); assay: co-IP; V5-IP from extracts of Huh-7 cells treated with Pep-peptides at the indicated concentrations for 24 h, immunoblot with SOX9 antibody; synthetic peptide added to cells as competitor; only the binder purified
V5-YAP (human) [7] = target: V5-YAP (human) (UniProt P46937); assay: co-IP; V5-IP from extracts of Huh-7 cells treated with Pep-peptides at the indicated concentrations for 24 h, immunoblot with SOX9 antibody; the pair that is blocked
V5-YAP S127A (human) = V5-YAP S127A (human) (UniProt P46937); assay: co-IP; anti-V5 beads, extracts of Huh-7 cells transfected with V5-tagged YAP or mutants, immunoblot for SOX9; also with siPRMT1 co-transfected (interaction reduced)
V5-YAP (human) [8] = target: V5-YAP (human) (UniProt P46937); assay: as above
[9] = target: Yes-associated protein (YAP), endogenous (human (endogenous in Huh-7)) (UniProt P46937); assay: co-IP; extracts from Huh-7 cells, endogenous proteins
[10] = target: TEAD4, endogenous (human (endogenous in Huh-7)) (UniProt Q15561); assay: as above
[11] = target: Yes-associated protein (YAP), endogenous (human (endogenous in Huh-7)) (UniProt P46937); assay: proximity ligation; PLA of YAP and SOX9 in HCC cells treated with Pep-peptides (supplementary Fig. 8a, b); the pair that is blocked
[12] = target: Yes-associated protein (YAP), endogenous (human (endogenous in Huh-7)) (UniProt P46937); assay: proximity ligation; Duolink PLA with antibodies against SOX9 and YAP in fixed HEK-293A cells and various tumor cells, endogenous proteins
[13] = target: SRY-Box transcription factor 9 (SOX9), endogenous (human (endogenous in Huh-7)) (UniProt P48436); assay: co-IP; extracts from Huh-7 cells, endogenous proteins
[14] = target: SOX9-HMG domain (aa 98–181) (UniProt P48436); assay: MST; SOX9-HMG domain labelled with 25 nM RED-tris-NTA 2nd Generation dye, YAP peptide (aa 115–135) serially diluted; 50 mM Tris-HCl pH 7.4, 150 mM NaCl, 0.05% Tween-20; room temperature; both purified
FLAG-SOX9 Δ176–210 = FLAG-SOX9 Δ176–210 (UniProt P48436); assay: co-IP; FLAG-IP from extracts of Huh-7 cells transfected with FLAG-SOX9 or its truncations, immunoblot for YAP
FLAG-SOX9 = FLAG-SOX9 (UniProt P48436); assay: as above
[15] = target: Yes-associated protein (YAP), endogenous (human (endogenous in Huh-7)) (UniProt P46937); assay: co-IP; cytoplasmic and nuclear protein fractions of Huh-7 cells transiently transfected with SOX9, over time
[16] = target: FLAG-YAP protein purified from SF9 (human) (UniProt P46937); assay: pull-down; 20 μM FLAG-YAP with 20 μM GST-SOX9 in the presence of FLAG beads overnight at 4 °C; washes in 20 mM Tris pH 8.0, 150 mM NaCl, 0.5% NP40, 0.5% TritonX-100, 1 mM DTT, 10% glycerol and once with 250 mM NaCl; immunoblot; both purified

Substance: DOX-inducible mCherry-SOX9 (from UniProt P48436 1-509)
binding [1]: binds

Substance: Pep-S-A1 (cell-penetrating peptide Pep, di-glycine linker, S-A1) (from UniProt P48436 111-126)
binding [5]: binds
binding (V5-YAP (human) [6]): binds

Substance: SRY-Box transcription factor 9 (SOX9), endogenous (from UniProt P48436 1-509)
binding (V5-YAP (human) [7]): binds
binding (V5-YAP S127A (human)): binds
binding (V5-YAP (human) [8]): binds
binding [9]: binds
binding [10]: no binding
binding [11]: binds
binding [12]: binds

Substance: exogenous SOX9 (transiently transfected) (from UniProt P48436 1-509)
binding [15]: binds

Continued, values first:

binding [2]: binds
binding (V5-YAP (human) [3]): binds
Substance: FLAG-SOX9 (from UniProt P48436 1-509)

binding [4]: binds
Substance: PRMT1 (from UniProt Q99873 1-371) (enzyme)

binding [13]: binds
Substance: YAP asymmetrically dimethylated at Arg-124 (YAP-R124me2a), endogenous (from UniProt P46937 1-504)

binding [14]: no binding
Substance: YAP peptide (aa 115–135) with R124K (from UniProt P46937 115-135)

binding (FLAG-SOX9 Δ176–210): binds
binding (FLAG-SOX9): binds
Substance: Yes-associated protein (YAP), endogenous (from UniProt P46937 1-504)

binding [16]: binds
Substance: recombinant GST-SOX9 protein (from UniProt P48436 1-509)
